# Values joined by “and” are separate entries in the source; they are usually repeats but may differ in a detail not shown here. Equal entries are not always repeated. In all, about 2,900 compounds were measured (“NF-kB SEAP reporter activity, fold change vs agonist alone”: median about 0.99, highest 2% from about 2.6 on). The list shows a part of the results.
# Key:
# RAW-Dual [1] = experiment: NF-kB SEAP reporter activity, fold change vs agonist alone; higher = enhanced NF-kB activity
# How it was run: (§1)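 RAW-Dual macrophages (50,000 cells/well in DMEM, 384-well plates) received 50 nL of library stock by pin tool, then a PRR agonist 1 h later, and were kept at 37 °C, 5% CO2. After 20 hours, supernatant was read for IRF by QuantiLuc luminescence and for NF-κB by QuantiBlue absorbance at 620 nm. Reporter activity is fold change over agonist-alone wells. Cytotoxic wells had IncuCyte confluency below 70% of agonist controls in both mask sets.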
# RAW-Dual [2] = experiment: NF-kB SEAP reporter activity, fold change vs agonist alone; cytotoxicity flag (confluency mask): not cytotoxic; higher = enhanced NF-kB activity
# How it was run: as §1
# RAW-Dual [3] = experiment: NF-kB SEAP reporter activity, fold change vs agonist alone; cytotoxicity flag (confluency mask): cytotoxic (confluency <70% of control); higher = enhanced NF-kB activity
# How it was run: as §1
# [4] = library stock concentration (final ~1000-fold dilution): 10 mM, cytotoxicity flag (confluency mask): not cytotoxic, agonist: Imiquimod (TLR7) […]
# [5] = library stock concentration (final ~1000-fold dilution): 10 mM, cytotoxicity flag (confluency mask): not cytotoxic, agonist: MPLA (TLR4) […]
# [6] = agonist: ODN 1826 (TLR9) 0.5 ug/mL
# [7] = agonist: Pam2CSK4 (TLR2/6) 0.1 ug/mL
# [8] = agonist: Pam3CSK4 (TLR2/1) 0.1 ug/mL
# [9] = library stock concentration (final ~1000-fold dilution): 2 mM, cytotoxicity flag (confluency mask): not cytotoxic, agonist: Imiquimod (TLR7) […]
# [10] = library stock concentration (final ~1000-fold dilution): 2 mM, cytotoxicity flag (confluency mask): not cytotoxic, agonist: MPLA (TLR4) […]
structure (smiles),measurement,setting,value
O=C1CCC(N2C(=O)c3ccccc3C2=O)C(=O)N1 (stereo unspecified),NF-kB SEAP reporter activity,RAW-Dual [1]; [4],0.926
same,NF-kB SEAP reporter activity,RAW-Dual [1]; [5],0.792
O=C1CCC(N2C(=O)c3ccccc3C2=O)C(=O)N1 (stereo unspecified) (library stock concentration (final ~1000-fold dilution): 10 mM),NF-kB SEAP reporter activity,RAW-Dual [2]; agonist: LPS (TLR4) 0.1 ug/mL,1.22
same,NF-kB SEAP reporter activity,RAW-Dual [2]; [6],1.01
same,NF-kB SEAP reporter activity,RAW-Dual [2]; [7],0.95
same,NF-kB SEAP reporter activity,RAW-Dual [2]; [8],1.17
COc1c(O)cc2oc3cc(O)c(CC=C(C)C)c(O)c3c(=O)c2c1CC=C(C)C (library stock concentration (final ~1000-fold dilution): 10 mM),NF-kB SEAP reporter activity,RAW-Dual [2]; agonist: LPS (TLR4) 0.1 ug/mL,0.946
same,NF-kB SEAP reporter activity,RAW-Dual [2]; [6],0.766
same,NF-kB SEAP reporter activity,RAW-Dual [2]; [7],0.793
same,NF-kB SEAP reporter activity,RAW-Dual [2]; [8],0.683
COc1c(O)cc2oc3cc(O)c(CC=C(C)C)c(O)c3c(=O)c2c1CC=C(C)C,NF-kB SEAP reporter activity,RAW-Dual [1]; [4],0.859
same,NF-kB SEAP reporter activity,RAW-Dual [1]; [5],0.885
CCCCc1nc(Cl)c(CO)n1Cc1ccc(-c2ccccc2-c2nnn[nH]2)cc1 (library stock concentration (final ~1000-fold dilution): 10 mM),NF-kB SEAP reporter activity,RAW-Dual [2]; agonist: LPS (TLR4) 0.1 ug/mL,0.999 and 0.936
same,NF-kB SEAP reporter activity,RAW-Dual [2]; [6],0.938 and 1.01
same,NF-kB SEAP reporter activity,RAW-Dual [2]; [7],0.969 and 0.98
same,NF-kB SEAP reporter activity,RAW-Dual [2]; [8],1.2 and 1.07
CCCCc1nc(Cl)c(CO)n1Cc1ccc(-c2ccccc2-c2nnn[nH]2)cc1,NF-kB SEAP reporter activity,RAW-Dual [1]; [4],0.875
Cc1nc2n(c(=O)c1CCN1CCC(c3noc4cc(F)ccc34)CC1)CCCC2O (stereo unspecified),NF-kB SEAP reporter activity,RAW-Dual [1]; [9],1.01
same,NF-kB SEAP reporter activity,RAW-Dual [1]; [10],1.01
Cc1nc2n(c(=O)c1CCN1CCC(c3noc4cc(F)ccc34)CC1)CCCC2O (stereo unspecified) (library stock concentration (final ~1000-fold dilution): 2 mM),NF-kB SEAP reporter activity,RAW-Dual [2]; agonist: LPS (TLR4) 0.1 ug/mL,1.18
same,NF-kB SEAP reporter activity,RAW-Dual [2]; [6],1.04
same,NF-kB SEAP reporter activity,RAW-Dual [2]; [7],1.13
same,NF-kB SEAP reporter activity,RAW-Dual [2]; [8],1.18
C=CCSCC=C,NF-kB SEAP reporter activity,RAW-Dual [1]; [5],1.06
C=CCSCC=C (library stock concentration (final ~1000-fold dilution): 10 mM),NF-kB SEAP reporter activity,RAW-Dual [2]; agonist: LPS (TLR4) 0.1 ug/mL,1.36
same,NF-kB SEAP reporter activity,RAW-Dual [2]; [6],0.968
same,NF-kB SEAP reporter activity,RAW-Dual [2]; [7],1.29
same,NF-kB SEAP reporter activity,RAW-Dual [2]; [8],1.33
CCN1CC(CCN2CCOCC2)C(c2ccccc2)(c2ccccc2)C1=O.Cl.O (stereo unspecified) (library stock concentration (final ~1000-fold dilution): 10 mM),NF-kB SEAP reporter activity,RAW-Dual [2]; agonist: LPS (TLR4) 0.1 ug/mL,1.04
same,NF-kB SEAP reporter activity,RAW-Dual [2]; [6],0.882
same,NF-kB SEAP reporter activity,RAW-Dual [2]; [7],1
same,NF-kB SEAP reporter activity,RAW-Dual [2]; [8],1.07
CCN1CC(CCN2CCOCC2)C(c2ccccc2)(c2ccccc2)C1=O.Cl.O (stereo unspecified),NF-kB SEAP reporter activity,RAW-Dual [1]; [4],0.97
same,NF-kB SEAP reporter activity,RAW-Dual [1]; [5],1.04
CC(NC(=O)Cc1cc(F)cc(F)c1)C(=O)NC1C(=O)N(C)c2ccccc2-c2ccccc21 (stereo unspecified),NF-kB SEAP reporter activity,RAW-Dual [1]; [4],1.37
same,NF-kB SEAP reporter activity,RAW-Dual [1]; [5],1.06
CC(NC(=O)Cc1cc(F)cc(F)c1)C(=O)NC1C(=O)N(C)c2ccccc2-c2ccccc21 (stereo unspecified) (library stock concentration (final ~1000-fold dilution): 10 mM),NF-kB SEAP reporter activity,RAW-Dual [2]; agonist: LPS (TLR4) 0.1 ug/mL,1.03
same,NF-kB SEAP reporter activity,RAW-Dual [2]; [6],1.01
same,NF-kB SEAP reporter activity,RAW-Dual [2]; [7],0.655
same,NF-kB SEAP reporter activity,RAW-Dual [2]; [8],0.894
C=CCNC1=C2CC(C)CC(OC)C(O)C(C)/C=C(\C)C(OC(N)=O)C(OC)/C=C\C=C(/C)C(=O)NC(=CC1=O)C2=O (stereo unspecified) (library stock concentration (final ~1000-fold dilution): 10 mM),NF-kB SEAP reporter activity,RAW-Dual [3]; agonist: LPS (TLR4) 0.1 ug/mL,0.289
same,NF-kB SEAP reporter activity,RAW-Dual [3]; [6],0.221
same,NF-kB SEAP reporter activity,RAW-Dual [3]; [7],0.0862
same,NF-kB SEAP reporter activity,RAW-Dual [3]; [8],0.182
C=CCNC1=C2CC(C)CC(OC)C(O)C(C)/C=C(\C)C(OC(N)=O)C(OC)/C=C\C=C(/C)C(=O)NC(=CC1=O)C2=O (stereo unspecified),NF-kB SEAP reporter activity,"RAW-Dual [1]; library stock concentration (final ~1000-fold dilution): 10 mM, cytotoxicity flag (confluency mask): cytotoxic (confluency <70% of control), agonist: Imiquimod (TLR7) […]",0.313
same,NF-kB SEAP reporter activity,"RAW-Dual [1]; library stock concentration (final ~1000-fold dilution): 10 mM, cytotoxicity flag (confluency mask): cytotoxic (confluency <70% of control), agonist: MPLA (TLR4) […]",0.516
C1CCN2CC3CC(CN4CCCCC34)C2C1.O.O.O.O.O.O=S(=O)(O)O (stereo unspecified) (library stock concentration (final ~1000-fold dilution): 10 mM),NF-kB SEAP reporter activity,RAW-Dual [2]; agonist: LPS (TLR4) 0.1 ug/mL,0.906
same,NF-kB SEAP reporter activity,RAW-Dual [2]; [6],0.919
same,NF-kB SEAP reporter activity,RAW-Dual [2]; [7],1.1
same,NF-kB SEAP reporter activity,RAW-Dual [2]; [8],0.922
C1CCN2CC3CC(CN4CCCCC34)C2C1.O.O.O.O.O.O=S(=O)(O)O (stereo unspecified),NF-kB SEAP reporter activity,RAW-Dual [1]; [4],0.917
same,NF-kB SEAP reporter activity,RAW-Dual [1]; [5],1.12
CCC(C)n1ncn(-c2ccc(N3CCN(c4ccc(OCC5COC(Cn6cncn6)(c6ccc(Cl)cc6Cl)O5)cc4)CC3)cc2)c1=O (stereo unspecified),NF-kB SEAP reporter activity,RAW-Dual [1]; [9],0.68
same,NF-kB SEAP reporter activity,RAW-Dual [1]; [10],1.39
CCC(C)n1ncn(-c2ccc(N3CCN(c4ccc(OCC5COC(Cn6cncn6)(c6ccc(Cl)cc6Cl)O5)cc4)CC3)cc2)c1=O (stereo unspecified) (library stock concentration (final ~1000-fold dilution): 2 mM),NF-kB SEAP reporter activity,RAW-Dual [2]; agonist: LPS (TLR4) 0.1 ug/mL,1.59
same,NF-kB SEAP reporter activity,RAW-Dual [2]; [6],1.18
same,NF-kB SEAP reporter activity,RAW-Dual [2]; [7],1.41
same,NF-kB SEAP reporter activity,RAW-Dual [2]; [8],1.99
Cc1cccc(Nc2ccccc2C(=O)O)c1C (library stock concentration (final ~1000-fold dilution): 10 mM),NF-kB SEAP reporter activity,RAW-Dual [2]; agonist: LPS (TLR4) 0.1 ug/mL,1.19
same,NF-kB SEAP reporter activity,RAW-Dual [2]; [6],0.945
same,NF-kB SEAP reporter activity,RAW-Dual [2]; [7],1.13
same,NF-kB SEAP reporter activity,RAW-Dual [2]; [8],1.04
Cc1cccc(Nc2ccccc2C(=O)O)c1C,NF-kB SEAP reporter activity,RAW-Dual [1]; [4],0.897
same,NF-kB SEAP reporter activity,RAW-Dual [1]; [5],0.985
O=C(Nc1cc(C(F)(F)F)ccc1N1CCN(Cc2ccccn2)CC1)c1ccc(-c2ccncc2)o1 (library stock concentration (final ~1000-fold dilution): 10 mM),NF-kB SEAP reporter activity,RAW-Dual [2]; agonist: LPS (TLR4) 0.1 ug/mL,1.25
same,NF-kB SEAP reporter activity,RAW-Dual [2]; [6],0.731
same,NF-kB SEAP reporter activity,RAW-Dual [2]; [7],0.657
same,NF-kB SEAP reporter activity,RAW-Dual [2]; [8],0.818
O=C(Nc1cc(C(F)(F)F)ccc1N1CCN(Cc2ccccn2)CC1)c1ccc(-c2ccncc2)o1,NF-kB SEAP reporter activity,RAW-Dual [1]; [4],0.609
same,NF-kB SEAP reporter activity,RAW-Dual [1]; [5],1.03
Cc1cc(C)c(CNC(=O)c2cc(-c3ccc(N4CCN(C)CC4)nc3)cc3c2c(C)cn3C(C)C)c(=O)[nH]1 (library stock concentration (final ~1000-fold dilution): 10 mM),NF-kB SEAP reporter activity,RAW-Dual [2]; agonist: LPS (TLR4) 0.1 ug/mL,1.01
same,NF-kB SEAP reporter activity,RAW-Dual [2]; [6],0.192
same,NF-kB SEAP reporter activity,RAW-Dual [2]; [7],0.694
same,NF-kB SEAP reporter activity,RAW-Dual [2]; [8],0.675
Cc1cc(C)c(CNC(=O)c2cc(-c3ccc(N4CCN(C)CC4)nc3)cc3c2c(C)cn3C(C)C)c(=O)[nH]1,NF-kB SEAP reporter activity,RAW-Dual [1]; [4],1.17
same,NF-kB SEAP reporter activity,RAW-Dual [1]; [5],1.23

# Source: the supplement of paper PMC10037445
